Where a name gives a salt, the structure may show the parent alone. ± gives the standard deviation of the averaged measurements. Whole data set: some 3,100 compounds, median “mean cytoplasmic OPP incorporation (global translation) relative to DMSO” near 100, cut for the lowest 2% near 56. The list shows a part of the results.

The assay has as its system U2OS. Put plainly: mean cytoplasmic OPP incorporation (global translation) relative to DMSO (% of DMSO); higher = more protein synthesis. Conditions: 10 µM; 24 h. As for the experimental part:
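Primary image-based screen in U2OS cells: compounds at 10 uM for 24 h, then a 1 h o-propargyl-puromycin (OPP) pulse, click labelling, and high-throughput microscopy. Mean cytoplasmic OPP intensity and nuclei count were normalised to DMSO wells within each plate (DMSO = 100) and averaged over triplicate plates.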
For the compound `Cn1cc(C2=C(c3cn(C4CCN(Cc5ccccn5)CC4)c4ccccc34)C(=O)NC2=O)c2ccccc21`, the “mean cytoplasmic OPP incorporation” value was 108.

For `C[C@]12CCC(=O)C=C1C=C[C@@H]1[C@@H]2CC[C@@]2(C)[C@H]1CC[C@@]2(O)CCC(=O)O` [Canrenoic acid potassium salt], the “mean cytoplasmic OPP incorporation” value came to 104.

Consider `CC[C@@H](C(=O)[C@@H](C)[C@@H](O)[C@H](C)[C@@H]1O[C@@H]([C@@H](CC)C(=O)O)CC[C@@H]1C)[C@H]1O[C@]2(C=C[C@@H](O)[C@]3(CC[C@@](C)([C@H]4CC[C@](O)(CC)[C@H](C)O4)O3)O2)[C@H](C)C[C@@H]1C` [Salinomycin (Procoxacin)], for which the “mean cytoplasmic OPP incorporation” value was 127.

On to `C(#CCN1CCCC1)CN1CCCC1` [Tremorine dihydrochloride], for which the “mean cytoplasmic OPP incorporation” value stood at 99.6.

Consider `OC(Cc1ccncc1)C(Cl)(Cl)Cl` (configuration not stated), for which the “mean cytoplasmic OPP incorporation” value stood at 104.

For the compound `CS(=O)(=O)Nc1ccc(Cc2noc(-c3ccc4[nH]cc(CCN)c4c3)n2)cc1`, the “mean cytoplasmic OPP incorporation” value was 108.

Take `Cc1cccc(C)c1NC(=O)CN1CCCC1=O` [Nefiracetam (Translon)]: the “mean cytoplasmic OPP incorporation” value was 99.9.

For `Cc1cccc(Cc2c[nH]cn2)c1C` [Detomidine HCl], the “mean cytoplasmic OPP incorporation” value turned out to be 98.8.

Turning to `N#CC(C#N)=Cc1ccc(O)c(O)c1` [AG 18 (Tyrphostin 23)], the “mean cytoplasmic OPP incorporation” value was determined as 99.4.

Consider `CCCC[N+]1(C)[C@@H]2C[C@@H](OC(=O)[C@H](CO)c3ccccc3)C[C@H]1[C@@H]1O[C@@H]12` (some centres not stated) [Butylscopolamine bromide (Scopolamine butylbromide)], for which the “mean cytoplasmic OPP incorporation” value turned out to be 107.

Consider `C/C(=C\c1csc(C)n1)[C@@H]1C[C@@H]2O[C@@H]2CCC[C@H](C)[C@H](O)[C@@H](C)C(=O)C(C)(C)[C@@H](O)CC(=O)O1` [Epothilone A], for which the “mean cytoplasmic OPP incorporation” value is 90.8.

For the compound `COc1ccc(N(C(=O)Oc2c(C)cccc2C)c2ccnc(Nc3ccc(N4CCN(C)CC4)cc3)n2)c(OC)c1`, the “mean cytoplasmic OPP incorporation” value was 114.

For `CN(C)CCc1ccc(O)cc1` [Hordenine], the “mean cytoplasmic OPP incorporation” value was determined as 102.

`CC(=O)[C@H]1CC[C@H]2[C@@H]3CC[C@H]4C[C@](C)(O)CC[C@]4(C)[C@H]3CC[C@]12C` [Ganaxolone]: the “mean cytoplasmic OPP incorporation” value worked out at 100.

Turning to `C#C[C@]1(O)CC[C@H]2[C@@H]3CCC4=CC(=O)CCC4=C3C=C[C@@]21CC` [Gestrinone], the “mean cytoplasmic OPP incorporation” value was 112.

Consider `O=C(O)C1=CCCN(CCOC(c2ccc(C(F)(F)F)cc2)c2ccc(C(F)(F)F)cc2)C1` [CI 966 hydrochloride], for which the “mean cytoplasmic OPP incorporation” value is 97.6.

`CN1[C@@H]2C[C@@H](OC(=O)[C@H](CO)c3ccccc3)C[C@H]1[C@@H]1O[C@@H]12` [Scopolamine hydrochloride]: the “mean cytoplasmic OPP incorporation” value came out at 98.7.

As for `CN1[C@@H]2C[C@@H](OC(=O)[C@H](CO)c3ccccc3)C[C@H]1[C@@H]1O[C@@H]12` [Scopolamine HBr], the “mean cytoplasmic OPP incorporation” value is 111.

Regarding `CN1[C@@H]2C[C@@H](OC(=O)[C@H](CO)c3ccccc3)C[C@H]1[C@@H]1O[C@@H]12` [Scopolamine hydrobromide], the “mean cytoplasmic OPP incorporation” value came to 102.

Consider `CC(C)(O)[C@H]1O[C@H]2CC[C@@]3(C)[C@@](O)(CC[C@H]4Cc5c([nH]c6ccccc56)[C@@]43C)C2=CC1=O` [Paxilline], for which the “mean cytoplasmic OPP incorporation” value worked out at 96.4 ± 5.5.

`NCC(CC(=O)O)c1ccc(Cl)cc1` (racemic) [Baclofen (R,S)]: the “mean cytoplasmic OPP incorporation” value came to 105.

As to `N[C@@H]1C[C@H]1c1ccccc1` [Tranylcypromine hydrochloride], the “mean cytoplasmic OPP incorporation” value worked out at 95.08 ± 0.83.

On to `O[C@H]1[C@H](O)[C@@H](O)CN2CC[C@H](O)[C@H]12` [Castanospermine], for which the “mean cytoplasmic OPP incorporation” value is 99.1.

As for `CO[C@H]1CC[C@@H](O[C@H]2C[C@H]([C@]3(C)CC[C@]4(C[C@H](O)[C@@H](C)[C@@H]([C@@H](C)/C=C(\C)C(=O)[C@H](C)C[C@H](C)C(=O)O)O4)O3)O[C@]3(O[C@@H]([C@H]4O[C@@](O)(CO)[C@H](C)C[C@@H]4C)C[C@@H]3C)[C@@H]2C)O[C@@H]1C` [Nanchangmycin], the “mean cytoplasmic OPP incorporation” value was 114.

Turning to `O=C(O)[C@@H]1[C@H](C(=O)O)[C@H]2CC[C@@H]1O2` [Endothall], the “mean cytoplasmic OPP incorporation” value came to 103.

On to `O=C1CC[C@@]2(O)[C@H]3Cc4ccc(O)c5c4[C@@]2(CCN3CC2CC2)[C@H]1O5` [Naltrexone hydrochloride dihydrate], for which the “mean cytoplasmic OPP incorporation” value amounted to 108.

Take `Cn1c(CCCC(=O)O)nc2cc(N(CCCl)CCCl)ccc21` [Bendamustine HCL]: the “mean cytoplasmic OPP incorporation” value amounted to 109.

Consider `CN[C@@H]1[C@@H](O)[C@@H](O[C@@H]2[C@@H](O)[C@H](O[C@H]3O[C@H](CN)CC[C@H]3N)[C@@H](N)C[C@H]2N)OC[C@]1(C)O.CN[C@@H]1[C@@H](O)[C@@H](O[C@@H]2[C@@H](O)[C@H](O[C@H]3O[C@H]([C@@H](C)N)CC[C@H]3N)[C@@H](N)C[C@H]2N)OC[C@]1(C)O.CN[C@@H]1[C@@H](O)[C@@H](O[C@@H]2[C@@H](O)[C@H](O[C@H]3O[C@H]([C@@H](C)NC)CC[C@H]3N)[C@@H](N)C[C@H]2N)OC[C@]1(C)O` [Gentamicine sulfate], for which the “mean cytoplasmic OPP incorporation” value was 102.

Turning to `CC(NC(C)(C)C)C(=O)c1cccc(Cl)c1` (configuration not stated) [Bupropion hydrochloride], the “mean cytoplasmic OPP incorporation” value was 102.

Consider `CC1(C)[C@H](C(=O)O[C@H](C#N)c2cccc(Oc3ccccc3)c2)[C@@H]1C=C(Br)Br` [Deltamethrin], for which the “mean cytoplasmic OPP incorporation” value was determined as 101.

As for `Oc1ccc2c3c1O[C@H]1c4[nH]c5ccccc5c4C[C@@]4(O)[C@@H](C2)N(CC2CC2)CC[C@]314` [Naltrindole hydrochloride], the “mean cytoplasmic OPP incorporation” value amounted to 110.

As for `Cc1cc(C)cc(C(=O)OC2C[C@H]3CC[C@@H](C2)N3C)c1` (some centres not stated) [Tropanyl-3,5-dimethylbenzoate], the “mean cytoplasmic OPP incorporation” value worked out at 103.

As to `CC(C)[C@]12O[C@H]1[C@@H]1O[C@]13[C@]1(O[C@H]1C[C@H]1C4=C(CC[C@@]13C)C(=O)OC4)[C@@H]2O` [Triptolide], the “mean cytoplasmic OPP incorporation” value was determined as 66.9.

With `CC(C)(C)c1cc(C=C(C#N)C#N)cc(Br)c1O`, the “mean cytoplasmic OPP incorporation” value amounted to 102 ± 1.4.

With `NC[C@H](CC(=O)O)c1ccc(Cl)cc1` [(R)-baclofen], the “mean cytoplasmic OPP incorporation” value came out at 99.3.

Consider `NC(=S)N/N=C/c1coc2ccccc2c1=O.[Cl][Cu][Cl]`, for which the “mean cytoplasmic OPP incorporation” value amounted to 101.

Regarding `CN1CCC2(C)c3cc(O)ccc3N(C)C12` (single isomer, unassigned; (-)) [(-)-Eseroline fumarate salt], the “mean cytoplasmic OPP incorporation” value was 107.

Consider `O=C1NC(=O)c2c1c1c3ccccc3n3c1c1c2c2ccccc2n1[C@H]1CC[C@@H]3O1`, for which the “mean cytoplasmic OPP incorporation” value is 91.2.

Consider `Cc1onc(O)c1CC(N)C(=O)O` (racemic), for which the “mean cytoplasmic OPP incorporation” value is 88.1.

Regarding `Cc1onc(O)c1CC(N)C(=O)O` (racemic) [(RS)-AMPA hydrobromide], the “mean cytoplasmic OPP incorporation” value was found to be 103.

For the compound `CC[C@@H](CO)NC(=O)[C@@H]1C=C2c3cccc4[nH]cc(c34)C[C@H]2N(C)C1` [Methylergometrine maleate], the “mean cytoplasmic OPP incorporation” value was 103 ± 8.5.

On to `CCC1(C2=NCCN2)Cc2ccccc2O1` (configuration not stated) [Efaroxan hydrochloride], for which the “mean cytoplasmic OPP incorporation” value was 95.8.

Regarding `CN(C)c1ccc(/C=C2\CCCN=C2c2cccnc2)cc1` [DMAB-anabaseine dihydrochloride], the “mean cytoplasmic OPP incorporation” value was found to be 105.

As for `NC(N)=Nc1ccc2[nH]c3c(c2c1)C[C@@]1(O)[C@H]2Cc4ccc(O)c5c4[C@@]1(CCN2CC1CC1)[C@H]3O5` [GNTI dihydrochloride], the “mean cytoplasmic OPP incorporation” value is 102.

For `CCOC(=O)c1ncn2c1[C@@H]1CCCN1C(=O)c1cc(OC)ccc1-2`, the “mean cytoplasmic OPP incorporation” value came out at 108.

With `CN1[C@@H]2CC[C@H]1C[C@@H](OC(=O)c1cc(Cl)cc(Cl)c1)C2`, the “mean cytoplasmic OPP incorporation” value was 104.

As to `O=C(O)c1nn(Cc2ccc(Cl)cc2Cl)c2ccccc12` [Lonidamine], the “mean cytoplasmic OPP incorporation” value is 89.4.

Regarding `Cc1cc(C(C#N)c2ccc(Cl)cc2)c(Cl)cc1NC(=O)c1cc(I)cc(I)c1O` (configuration not stated) [Closantel], the “mean cytoplasmic OPP incorporation” value was found to be 109.

As to `CC(C)(C)c1cc(C=C(C#N)C#N)cc(C(C)(C)C)c1O` [Tyrphostin 9 (SF 6847)], the “mean cytoplasmic OPP incorporation” value was 92.7.

As for `C[C@@H]1C[C@@H]([C@H](O)CC2CC(=O)NC(=O)C2)C(=O)[C@@H](C)C1` [Cycloheximide], the “mean cytoplasmic OPP incorporation” value was found to be 52.1 ± 35.

As for `O=c1[nH]oc2c1CCNC2` [THIP Hydrochloride], the “mean cytoplasmic OPP incorporation” value turned out to be 99.7.

In the case of `O=c1[nH]oc2c1CCNC2` [THIP hydrochloride], the “mean cytoplasmic OPP incorporation” value was determined as 96.

Regarding `C[N+]1(C)CCc2cc3c(cc2[C@H]1[C@@H]1OC(=O)c2c1ccc1c2OCO1)OCO3` [(-)-Bicuculline methiodide], the “mean cytoplasmic OPP incorporation” value was 87.3.

For `C[N+]1(C)CCc2cc3c(cc2[C@H]1[C@@H]1OC(=O)c2c1ccc1c2OCO1)OCO3` [(-)-Bicuculline methochloride], the “mean cytoplasmic OPP incorporation” value was 95.4.

Turning to `CN1CC[C@@H]2CN3CCc4cccc(c43)[C@@H]2C1` [SDZ SER 082 fumarate], the “mean cytoplasmic OPP incorporation” value was 104.

On to `NCC1(CC(=O)O)CCCCC1` [Gabapentin], for which the “mean cytoplasmic OPP incorporation” value is 91.8.

Consider `O=c1cccc2n1C[C@@H]1CNC[C@H]2C1` [Cytisine (Baphitoxine, Sophorine)], for which the “mean cytoplasmic OPP incorporation” value stood at 96.4.

As for `O=c1cccc2n1C[C@@H]1CNC[C@H]2C1` [(-)-Cytisine], the “mean cytoplasmic OPP incorporation” value was 93.3.

As to `O=C(CCCN1CCC2(CC1)C(=O)NCN2c1ccccc1)c1ccc(F)cc1` [Spiperone hydrochloride], the “mean cytoplasmic OPP incorporation” value amounted to 121.

As to `O=C(CCCN1CCC2(CC1)C(=O)NCN2c1ccccc1)c1ccc(F)cc1` [Spiperone], the “mean cytoplasmic OPP incorporation” value turned out to be 103.

`CC(N)C(O)c1ccccc1` (configuration not stated) [Phenylpropanolamine hydrochloride]: the “mean cytoplasmic OPP incorporation” value is 103.

On to `CCCCC1(C2CCCC2)Cc2cc(OCCCC(=O)O)c(Cl)c(Cl)c2C1=O` (configuration not stated), for which the “mean cytoplasmic OPP incorporation” value was 95.3.

Turning to `Fc1ccc(C(OCCN2CCN(C/C=C/c3ccccc3)CC2)c2ccc(F)cc2)cc1`, the “mean cytoplasmic OPP incorporation” value turned out to be 102.

As for `C=C1CC[C@@]2(O)[C@H]3Cc4ccc(O)c5c4[C@@]2(CCN3CC2CC2)[C@H]1O5` [Nalmefene hydrochloride], the “mean cytoplasmic OPP incorporation” value worked out at 101.

With `O=[N+]([O-])O[C@H]1CO[C@H]2[C@@H]1OC[C@H]2O[N+](=O)[O-]` [Isosorbide dinitrate], the “mean cytoplasmic OPP incorporation” value is 103.

For `Cc1ncsc1CCCl` [Chlormethiazole hydrochloride], the “mean cytoplasmic OPP incorporation” value came to 90.6.

For `CCN1CCN(C(=O)Cc2ccc(Nc3ncc(F)c(Nc4ccc(C(=O)Nc5ccccc5Cl)cc4)n3)cc2)CC1` [Aurora A Inhibitor I], the “mean cytoplasmic OPP incorporation” value was 117.

The values are drawn from the supplement of paper PMC8183993.
